From PubChem BioAssay AID1345083 (National Center for Advancing Translational Sciences (NCATS), 2018)
Several values for one entry are separate records, joined by “and”; a condition that tells them apart may be missing. Equal values may be shown once. In all, about 94,000 compounds went through this assay and about 6,200 (6.6%) were called active. Inconclusive results, whose numbers are uncertain, are shown with a selection of clear calls. The call rests on the fitted dose curve; in most records, active means well fitted inhibition curve with a large enough effect; inconclusive means small, poorly fitted or top-dose-only effect; inactive means flat fitted curve, though single readings scatter. Potencies of inconclusive entries are doubtful fits and often do not repeat.

Assay: Cytotoxic Profiling in HEK 293 Cell Line of Diverse Libraries Using Quantitative High-Throughput Screening; further: nearly all actives have a fitted effect of over 60% in size
Conditions: HEK 293 viability, ATP luminescence (CellTiter-Glo), 48-72 h; series mostly up to 115 µM
Outline: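 250 HEK 293 cells/well; compound by pintool; incubated 48 or 72 hr at 37 degree Celsius; CellTiter-Glo added, 10 min RT, luminescence imaged.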
Potency means the concentration at half of the fitted maximal effect; tags describe the fitted curve by direction and shape.

SMILES | Potency
Cc1ccc(CNC(=O)Cn2ccn3nc4c(c3c2=O)CCCCC4)cc1 | inactive
Cc1nccn1CC(=O)N1C[C@@H](COCC2CC2)[C@H](c2ccncc2)C1 | inactive
COCC1CN(C(C)=O)CC12CCN(C(=O)c1cc(C)cc(C)c1)CC2 (centres undefined) | inactive
O=C(Nc1ccc([C@@H](O)[C@H]2COCC(=O)N2Cc2ccccc2F)cc1)c1ccccc1 | inconclusive: 50.1 µM [inhibitor, full curve, poor fit]
O=C(NCCC1CCCCC1)C1CCCN1C(=O)c1cccc(-c2cccnc2)c1 (centres undefined) | inconclusive: 56.2 µM [inhibitor, partial curve, poor fit]
Cc1cc(C)cc(C(=O)Nc2ccc3c(N4CCCC4)ncnc3c2)c1 | inconclusive: 63.1 µM [inhibitor, partial curve, poor fit]
Cc1cc(=O)n(CC(=O)NCc2ccc3c(c2)OCO3)c(N2CCc3ccccc3C2)n1 | inconclusive: 89.1 µM [inhibitor, single point]
O=C(Cn1c2c(c(=O)n1Cc1ccccc1)CCN(Cc1ccccc1)C2)N1CCC(c2ccccc2)CC1 | inconclusive: 56.2 µM [inhibitor, partial curve, poor fit]
CN1c2ncccc2CN(Cc2ccccc2O)CC[C@H]1CO | inactive
O=C1NCCCCCN(Cc2cccnc2)[C@@H]2CN(C(=O)C3CCCCC3)CC[C@@H]12 | inactive
Cc1ccc(CNC(=O)c2ccc3c(c2)CN(Cc2cc(F)c(F)c(F)c2)CCO3)cc1 | active: 35.5 µM
COc1ccc(-c2noc([C@@H]3CCCN3Cc3ccc(S(C)(=O)=O)cc3)n2)cn1 | inconclusive: 100 µM [inhibitor, partial curve, poor fit]
O=C(N[C@H]1CO[C@H]2[C@@H]1OC[C@@H]2Nc1nccc(-c2cccc(F)c2)n1)c1cccs1 | inconclusive: 126 µM [inhibitor, single point]
Cc1cccc(-c2nc3ccc(C(=O)NCC(F)(F)F)cc3o2)n1 | inconclusive: 50.1 µM [inhibitor, partial curve, poor fit]
COc1ccccc1Nc1ccnc(N2CCCC(C(=O)NCCc3ccccc3)C2)n1 (centres undefined) | inconclusive: 39.8 µM [inhibitor, partial curve, poor fit]
COc1ccccc1CNC(=O)c1nn(CC2CC2)c2c1CNCC2 | inactive
Cn1cc(CN2CCOC[C@H]2c2ncc(-c3ccc(F)cc3F)[nH]2)c2ccccc21 | active: 50.1 µM
O=C(CN1C(=O)NC(c2ccc(Cl)cc2)C2=C1COC2=O)Nc1cccc(C(F)(F)F)c1 (centres undefined) | inconclusive: 10 µM [inhibitor, full curve, poor fit]
CC(=O)N1CCCN(C(=O)c2ccc3c(c2)NC(C)(CCCCc2ccccc2)CO3)CC1 (centres undefined) | inconclusive: 50.1 µM [inhibitor, partial curve, poor fit]
COc1ccc(CC(=O)N2CCN(c3nccc(Nc4ccccc4Cl)n3)CC2)cc1 | inconclusive: 44.7 µM [inhibitor, partial curve, poor fit]

SMILES | Potency
O=C(Nc1ccccc1)c1nc2c(o1)CCN(CC1CC1)CC2 | inconclusive: 100 µM [inhibitor, partial curve, poor fit]
c1cncc(-c2nc3ccncc3[nH]2)c1 | inactive and inconclusive: 89.1 µM [inhibitor, partial curve, poor fit]
COCCNC(=O)CCc1c(C)nn(-c2ccccc2)c1Oc1ccc(F)cc1F | inconclusive: 89.1 µM [inhibitor, single point]
CC1(C(=O)NCc2ccncc2)CN(Cc2ccccc2)Cc2ccc(N3CCOCC3)nc21 (centres undefined) | inactive
CN(Cc1ccccc1)C(=O)c1cn2ccnc(-c3ccccc3)c2n1 | inconclusive: 89.1 µM [inhibitor, single point]
Cc1ccc([S+](=O)([O-])N2CCC3(CC2)C(=O)NCN3Cc2ccc(Cl)cc2)cc1 | inconclusive: 39.8 µM [inhibitor, full curve, poor fit]
CCOC(=O)[C@H]1[C@@H](O)C(=O)N(Cc2ccccc2)C12CCN(C(=O)c1cc3ccccc3s1)CC2 | inconclusive: 50.1 µM [inhibitor, partial curve, poor fit]
CCOC(=O)c1cccc(NC(=O)N2CC[C@@H](CC(=O)N(C)CC#N)[C@@H](CC)C2)c1 | inconclusive: 126 µM [inhibitor, partial curve, poor fit]
COc1ccc(CN2CCOc3ccc(C(=O)NCc4ccc(C)cc4)cc3C2)c(OC)c1 | inconclusive: 50.1 µM [inhibitor, partial curve, poor fit]
O=C(O)CCC(=O)N1CCC2(Cc3ccccc3N(C(=O)c3ccc(Cl)cc3)C2)C1 (centres undefined) | inactive
Cc1cnc(C2CC2)n1C1CCCN(C(=O)c2ccoc2)C1 (centres undefined) | inactive
Cn1c(C(=O)NC(C)(C)C)cc2c1CCN(Cc1cccc(F)c1)C2 | inconclusive: 35.5 µM [inhibitor, partial curve, poor fit]
COc1cc(CN2C[C@@H](F)[C@@H](OCc3nc4ccc(F)cc4[nH]3)C2)cc(OC)c1OC | inactive
CN(C)C[C@@H]1CN(Cc2ccccc2)C[C@H]1NC(=O)c1nn(C)c2ccccc12 | active: 39.8 µM
O=C([C@@H]1C[C@H](Oc2ccccc2)CN1C(=O)C1CCC1)N1CCCC1 | inconclusive: 89.1 µM [inhibitor, single point]
Cc1cnc(C2CCN(C(=O)NCC(C)C)C2)n1C(C)C (centres undefined) | inactive
C[C@]1(CO)[C@H]2Cc3sc(NC(=O)c4ccc(F)cc4)nc3[C@@H](CC(=O)NC3CCCCC3)[C@]2(C)CC[C@H]1O | inconclusive: 50.1 µM [inhibitor, partial curve, poor fit]
COc1ccc(C(=O)N2CC(=O)N(Cc3c(OC)cccc3OC)CC(O)C2)cc1 (centres undefined) | inactive
Cc1oc2ccn(Cc3ccc(F)cc3)c(=O)c2c1C(=O)N1CCN(c2ccccn2)CC1 | inconclusive: 50.1 µM [inhibitor, partial curve, poor fit]
